Measurements published in ChEMBL document CHEMBL1201862, “PubChem BioAssay data set” (2004).
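Five compound concentrations were applied to cells in 96-well plates for 48 hours; endpoints were derived by simple linear interpolation of the resulting dose-response curve. GI50: concentration for 50% inhibition of growth.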 Calls of active or inactive are those of the source. Rule as the data show it: active = GI50 up to about 1.1 µM and inactive = higher. Peptide text beside a SMILES is read from it. * marks the point of attachment. Boc = CC(C)(C)OC(=O)*

These molecules were tested on NCI-H322M (assay: inhibition of tumour cell growth, NCI panel, 48 h).
With `COc1ccc(CN2CCC/C=C/CC(Cl)(Cl)C2=O)cc1` the GI50 was inactive: 43.9 µM.
In the case of `CCCCCCc1cc2cc(-c3csc(CC#N)n3)c(=O)oc2cc1O`, the GI50 is reported as inactive: > 100 µM.
In the case of `O=C1C(=O)N(C2CCCCC2)C(=S)N1C1CCCCC1`, the GI50 is reported as inactive: > 100 µM.
In the case of `Cc1nn2c(N)cc(=O)nc2nc1/C=C/c1ccc(N(C)C)cc1`, the GI50 is reported as inactive: > 48 µM.
In the case of `C1=N\c2ccc(cc2)/N=C\c2ccccc2OCc2cccc(n2)COc2ccccc2/1`, the GI50 is reported as inactive: > 100 µM.
In the case of `C/C=C/C/C=C/CCC(=O)C1OC1C(N)=O` (stereo unspecified), the GI50 is reported as inactive: 20.2 µM.
In the case of `CC(C)C1CC(CO)(CNc2nc(N)nc(Cl)c2/C=N\O)C1` (stereo unspecified), the GI50 is reported as inactive: 3.36 µM.
With `CC1=NN=C(NCCN(C)C)C/C1=C/c1ccccc1Cl` the GI50 was inactive: > 100 µM.
For `O=C(CSCC(=O)N/N=C\c1ccccc1F)N/N=C\c1ccccc1F`, the GI50 was inactive: > 100 µM.
In the case of `CC(C)C1=CC23CCC4C(C)(C(=O)O)CCCC4(C)C2CC1C(C(=O)O)C3C(=O)O` (stereo unspecified), the GI50 is reported as inactive: > 100 µM.
With `O=C(O)CSc1nnc2c3ccccc3c3ccccc3c2n1` the GI50 was inactive: 54.6 µM.
For `O=[N+]([O-])CC(SCc1ccccc1)c1ccc2c(c1)OCO2` (stereo unspecified), the GI50 was inactive: 18.6 µM.
For `C=C(C)C1Cc2c(cc(O)c3c(=O)c4ccccc4n(C)c23)O1` (stereo unspecified), the GI50 was inactive: > 100 µM.
`N#CC(C#N)[C@@H]1CCC=C(Sc2ccccc2)[C@H]1Sc1ccccc1` was tested, and the GI50 was inactive: 6.15 µM.
In the case of `Cc1ccc(S[C@@H](C)[C@@](O)(C(N)=O)c2ccccc2)cc1`, the GI50 is reported as inactive: > 100 µM.
In the case of `NC(=O)CNC(=O)[C@@H]1CC(OCCC(=O)O)CN1C(=O)C1CCCN1C(=O)OCc1ccccc1` (stereo partly specified), the GI50 is reported as inactive: > 100 µM.
In the case of `CC(=O)c1c2c(cc3c1CC1(Cc4ccccc4C1=O)C3)CCC2` (stereo unspecified), the GI50 is reported as inactive: 24.7 µM.
`CC(C)CCCCCCCCCCCCC(=O)NCC(=O)NC1C(C)OC(Nc2ncnc3c2ncn3C)C(O)C1O` (stereo unspecified) was tested, and the GI50 was inactive: 8.18 µM.
`COC(=O)C(Cc1ccccc1)NC(=O)C(CS)NC(=O)OC(C)(C)C` (stereo not drawn) (Boc-Cys-Phe-OMe; configuration not given here) was tested, and the GI50 was inactive: > 100 µM.
With `O=c1[nH]cc(C(F)(C(F)(F)F)C(F)(F)F)c(=O)[nH]1` the GI50 was inactive: > 100 µM.
`O=C(CC/C(C/C(=N/O)c1ccc(F)cc1)=N/O)N(Cc1ccccc1)Cc1ccccc1` was tested, and the GI50 was inactive: > 100 µM.
`CCC1=C(CC2NCCc3cc(OC)c(OC)cc32)CC2c3ccccc3CCN2C1` (stereo unspecified) was tested, and the GI50 was inactive: 16.4 µM.
In the case of `CCCCCCCCCCCC[N+]12CC[N+](CCN)(CC1)CC2`, the GI50 is reported as inactive: 46.1 µM.
With `O=C(CCCn1ccnc1[N+](=O)[O-])NCCn1cnc([N+](=O)[O-])n1` the GI50 was inactive: > 100 µM.
In the case of `CC(C)N(c1cc2c(cc1F)c(=O)c(C(=O)O)cn2-c1ccc(N2CCN(C)CC2)cn1)C(C)C`, the GI50 is reported as inactive: > 100 µM.
With `O=C1CCCCCCCCCCOC(=O)CCCCCCCCCCO1` the GI50 was inactive: > 100 µM.
`CN1CCC23c4c5ccc(O)c4OC2c2[nH]c4ccccc4c2CC3(O)C1C5` (stereo unspecified) was tested, and the GI50 was inactive: 37.7 µM.
For `CCOC(=O)c1cc2ncccc2c2ccccc12`, the GI50 was inactive: > 100 µM.
In the case of `O=c1c2cc(Br)cc(Br)c2nc(CCCl)n1-c1ccc(O)c([N+](=O)[O-])c1`, the GI50 is reported as inactive: 17.9 µM.
With `COCN1CCN=c2c1c1c3c(c4ccccc4n23)CCC1` the GI50 was inactive: > 100 µM.
For `COc1ccc(C(=O)/C=C/c2ccc(OCC(=N)N)cc2)cc1`, the GI50 was inactive: 14.5 µM.
`Nc1ccc(S(=O)(=O)NCc2nccs2)cc1` was tested, and the GI50 was inactive: 16.9 µM.
With `O=c1[nH]c2nc3ccccc3c(=O)n2/c1=C/c1ccccc1` the GI50 was inactive: 77.4 µM.
For `Cc1cc2c(c(O)c1-c1c(C)cc(O)c3c1C(=O)C=CC3=O)C(=O)C=CC2=O`, the GI50 was inactive: 17.2 µM.
With `C[N+](C)(C)CCc1ccccc1` the GI50 was inactive: > 100 µM.
For `Cn1c2ccc([N+](=O)[O-])cc2c(=O)n1Cc1ccccc1F`, the GI50 was inactive: > 100 µM.
With `CC1=CC(C)(C)NN1C1=NS(=O)(=O)c2ccccc2N1C` the GI50 was inactive: > 100 µM.
In the case of `Cc1ccc2c(c1CCCC(C)(C)O)C(=O)C(O)=C(C(C)C)C2=O`, the GI50 is reported as inactive: 65.3 µM.
With `COc1c(C)c(C/C=C(\C)CC/C=C(\C)CCC=C(C)C)c(OC)c(OC)c1OC` the GI50 was inactive: > 100 µM.
In the case of `COc1cc(=O)n2c3ccccc3n(C)c2c1C#N`, the GI50 is reported as inactive: > 100 µM.
`Cc1cc(C)c2cc(N)c(Cl)nc2n1` was tested, and the GI50 was inactive: > 100 µM.
For `Cc1cccc2c(N)c3cccc(C(=O)NCCCNCCN)c3nc12`, the GI50 was inactive: 4.45 µM.
In the case of `O=C(Cc1csc2[n+]1C(=O)/C(=C/c1ccc(Cl)cc1)S2)Nc1ccccc1`, the GI50 is reported as inactive: 21.7 µM.
`O=[N+]([O-])c1ccc(C2CC(c3ccccc3Cl)=Nc3ccccc3[S+]2[O-])cc1` (stereo unspecified) was tested, and the GI50 was inactive: 15.6 µM.
For `CCn1c2ccccc2c2ccc3c(c21)C(=O)c1ccccc1C3=O`, the GI50 was inactive: > 100 µM.
In the case of `CC(C)NC(=O)OCc1c(COC(=O)NC(C)C)n(C)c2c1ccc1sccc12`, the GI50 is reported as inactive: 20 µM.
